Experimental data taken from the RNAGym collection of RNA variant scans (doi:10.1093/nar/gkz1192).
The source gives no read counts; variants with many changes may rest on few reads.

B1: CPEB3 Ribozyme (parent)
chain: UAACAGGGGGCCACAGCAGAAGCGUUCACGUCGCAGCCCCUGUCAGAUUCUGGUGAAUCUGCGAAUUCUGCUGUAUAUCUC

Variants of: B1
Test: self-cleavage, relative activity (ratio to wild type); higher = more cleavage; in vitro, sequencing
In short: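 Libraries of CPEB3 self-cleaving ribozyme mutants came from rounds of error-prone PCR and carried barcodes, which DNA sequencing matched to variants. In vitro transcription used T7 RNA polymerase at 37°C for 5 hours, with a further 15 min in DNase I before EDTA stopped the reaction; the ribozymes cleaved during both steps. The RNA was reverse transcribed with template switching and sequenced on Illumina. Relative activity is the cleaved/total read fraction of a variant divided by that of the unmutated ribozyme, averaged over three batches with at least 5 reads.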

Variant | self-cleavage
U31A C40A U41C U60G | 0.09
U31A C40A U51C U58C U67C | 0.05
U31A C40A U60A | 0.16
U31A C40G U58C | 0.1
U31A C40U U49G U51C U66C U69A | 0.06
U31A C40U U51C | 0.24
U31A C44U U48A U54C A57G U67A U80C | 0.03
U31A C59U U69A U74C | 0.14
U31A C68U U80C | 0.5
U31A G33A U66A C79U | 0.09
U31A G33A U67C | 0.07
U31A G33U U60A A77U | 0.13
U31A G36A U60C A65U | 0.05
U31A G36C U72A | 0.33
U31A G46U U54C U58A U78G | 0.09
U31A G52A A56G U60A G70A | 0.22
U31A G52U A57G U66C | 0.15
U31A G53A G70A U72A | 0.12
U31A G55U A57G A64G U69C C71U | 0.1
U31A G63C U72C | 0.51
U31A G70C U80C | 0.21
U31A U41A A57G U60A | 0.11
U31A U41A C62U U72C | 0.15
U31A U41A U43C | 0.1

Variant | self-cleavage
U31A U41A U54C C62U C81U | 0.14
U31A U41A U60A U72C U80C | 0.2
U31A U41A U69C | 0.07
U31A U41C A45G U67C U69C | 0.14
U31A U41C A57U C59A U78G | 0.07
U31A U41C U43A U80A | 0.14
U31A U41C U48C U67C U80C | 0.12
U31A U41C U69G U80C | 0.28
U31A U41C U72C | 0.59
U31A U41G U43C A57G A64U U72C A75G | 0.01
U31A U41G U60G U78C | 0.11
U31A U43A A47G A56G | 0.39
U31A U43C A64G U69A | 0.14
U31A U43C A75U | 0.39
U31A U43C G53A | 0.47
U31A U43C U66G U80C | 0.18
U31A U43C U67C A75U | 0.1
U31A U43C U69C A77C | 0.15
U31A U43C U72C | 0.42
U31A U48A U58C U67A | 0.1
U31A U48A U60C G73A | 0.08
U31A U48C A57G U72C | 0.41
U31A U48C A64G | 0.39
U31A U49C A56G | 0.6

Variant | self-cleavage
U31A U49C A65G U69C U72A | 0.06
U31A U49C G55A A57U A64U | 0.07
U31A U49C U51A U67C | 0.26
U31A U51A A56G A57G | 0.21
U31A U51A A64U A65G | 0.17
U31A U51A U67C | 0.17
U31A U51A U72C | 0.7
U31A U54A G63C U74C | 0.57
U31A U54C C79A | 0.48
U31A U54C U60C | 0.23
U31A U54C U76C | 0.49
U31A U54G U72C | 0.74
U31A U58C U60C U72C | 0.13
U31A U58C U72C | 0.28
U31A U60A U69G | 0.15
U31A U60A U80C | 0.3
U31A U60C C79A | 0.27
U31A U60C U78C | 0.14
U31A U66C U74A U76C | 0.17
U31A U67A U78A | 0.2
U31A U67C U72C U80C | 0.15
U31A U67C U74A | 0.14
U31A U69C U72A | 0.11
U31A U72G U78A | 0.73

Variant | self-cleavage
U31C A35G A45G A64U U66C | 0.26
U31C A35G A45U A65C U69C U72A | 0.18
U31C A35G A45U U54A A56G U72A | 0.11
U31C A35G C37G | 0.31
U31C A35G C39U | 1.29
U31C A35G C40G U51C | 0.18
U31C A35G C40G U54C A64G | 0.21
U31C A35G U54C | 1.19
U31C A35G U60A | 0.66
U31C A35G U66G | 0.88
U31C A35G U67A | 0.55
U31C A35G U69C | 0.56
U31C A35G U74C | 1.18
U31C A35U A45C G53A U54G U69C | 0.08
U31C A35U A45U U51G G53A U54G U76C | 0.13
U31C A35U A56G U67C U72C U78C | 0.04
U31C A35U U49A U78C | 0.08
U31C A45C A56G U58C | 0.2
U31C A45C U58C A65G G73C | 0.09
U31C A45C U60C | 0.32
U31C A45C U69C | 0.09
U31C A45C U80C | 0.2
U31C A45G A47G | 0.21
U31C A45G U54C A57G C71U | 0.04

Variant | self-cleavage
U31C A45G U54G U76C | 0.33
U31C A45U A47U U51A A57G U67C A75U | 0.04
U31C A45U A57G A64U C71A U72C | 0.11
U31C A45U C71G | 0.14
U31C A45U U72C U78A | 0.29
U31C A47G G63A | 0.54
U31C A47G U48C | 0.41
U31C A47G U49A A77U | 0.15
U31C A56G U58C U72C | 0.26
U31C A56G U66C | 0.37
U31C A56U A57G U69A U80C | 0.08
U31C A56U A64G | 0.15
U31C A56U U58A | 0.15
U31C A56U U72A | 0.17
U31C A56U U72C | 0.24
U31C A57G U74C | 1.31
U31C A57G U78C | 0.65
U31C A64G U69A | 0.12
U31C A64G U74C U80C | 0.68
U31C A64G U78A | 0.73
U31C A64G U80C | 0.72
U31C A64U C68U | 0.43
U31C A64U U66A | 0.17
U31C A64U U72A | 0.18

Variant | self-cleavage
U31C A65G G73A U80G | 0.69
U31C A65G U66A C68U U69C | 0.22
U31C A65G U66C U78C | 0.08
U31C A65G U76C | 0.24
U31C A65G U80G | 0.41
U31C A75G U76A | 0.84
U31C A77G U78C | 0.81
U31C C32A A45G A77G | 0.13
U31C C32A U60C A64G | 0.1
U31C C32G A57U | 0.16
U31C C32G A65G U78C | 0.12
U31C C32U G46U U76C | 0.03
U31C C32U U43C | 0.14
U31C C32U U51A C59U U76A | 0.06
U31C C34G A47G A56G A57G C62U | 0.07
U31C C34U A47G U60C | 0.08
U31C C34U U69A | 0.11
U31C C37A A65G U74A A77C U80C | 0.12
U31C C37U A45G U66C | 0.13
U31C C38A U41A A56U C71A | 0.06
U31C C38U U41A A56G U60A | 0.08
U31C C38U U69C U80C | 0.12
U31C C39A U43C A56G | 0.09
U31C C40G U51C G52U | 0.38

Variant | self-cleavage
U31C C40G U72C | 0.33
U31C C40U U43C G63A | 0.19
U31C C40U U51C U66C U69A | 0.12
U31C C40U U58A U72A A75G | 0.18
U31C C40U U72C | 0.55
U31C C50U U51C U74C A75G | 0.95
U31C C62G U66C | 0.14
U31C G33A A35G U48C U67A | 0.17
U31C G33A A35G U67A | 0.09
U31C G33A A47C U72C | 0.13
U31C G33A C37U U51C | 0.11
U31C G33A U49A A57G A65G U69G U78C | 0.04
U31C G33A U51C U58A U72C | 0.08
U31C G33U A47C U72C | 0.07
U31C G33U U69A U74C C79U | 0.12
U31C G36A A45G U74A | 0.18
U31C G36A U41A | 0.45
U31C G36C G52U A65U U74C | 0.08
U31C G36U G55C | 0.12
U31C G42A A65G A75G | 0.06
U31C G42A C68G U78C | 0.1
U31C G42A U48C U51C | 0.12
U31C G46A A47G U54C U72A | 0.06
